The full ranking holds about 81,000 sequences; the median of “one-hybrid fitness for binding parS DNA” is about -0.17, and the highest 2% start at about 0.51. The list shows a part of the results.
B1: Caulobacter ParB omega fusion; a variant is named by its letters at X, in order, B8GW30 (parent)
chain: MESVVVGEPGMSEGRRGLGRGLSALLGEVDAAPAQAPGEQLGGSREAPIEILQRNPDQPRRTFREEDLEDLSNSIREKGVLQPILVRPSPDTAGEYQIVAGERAWRAAQRAGLKTVPIMVRELDDLAVLEIGIIENVQRADLNVLEEALSYKVLMEKFERTQENIAQTIGKSXSHVANXMRLLXLPDEVQSYLVSGELTAXHARAIAAAADPVALAKQIIEGGLSVRETEALARKAPNLSAGKSKGGRPPRVKDTDTQALESDLSSVLGLDVSIDHRGSTGTLTITYATLEQLDDLCNRLTRGI

Variants of: B1
Experiment: one-hybrid fitness for binding parS DNA (scaled: cognate 1, non-cognate 0); higher = stronger binding
Details: with parS DNA site
Method in brief: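 The reporter was HIS3, with the binding site 19 bp from the promoter, in E. coli USO used for bacterial one-hybrid selection of Caulobacter ParB libraries with four specificity codons randomised. Growth was on M9 lacking histidine, with 0.1 mM IPTG and 5 mM 3-AT, for 48 hours at 37°C. Illumina sequencing covered plasmids before and after selection; three replicate libraries were pooled and variants with under 10 reads dropped. A fitness score is the log change in variant-to-wild-type read ratio, rescaled to the cognate and non-cognate references.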

one-hybrid fitness for binding parS DNA, 0.221:
WLDS

one-hybrid fitness for binding parS DNA, 0.202:
RIQW

one-hybrid fitness for binding parS DNA, 0.242:
RCNH

one-hybrid fitness for binding parS DNA, 0.292:
RQAM

one-hybrid fitness for binding parS DNA, 0.381:
RTWM

one-hybrid fitness for binding parS DNA, ≤ 0.2:
CGSS
HHVC
GWCR
QKNS
IWGR
QTNS
AHTS
ETHG
LLLS
SAPI
TATM
ADRI
DGVL
ESSR
HNGR
WYAR
DGAA
MSDT
WYKS
NDAC
EASE
SWHM
RYDL
SWAI
KCTH
WRDE
NHWI
GVRN
ISNV
VTEN
VKCE
GVGL
EVSC
KSES
DSPY
RVKH
GFRR
PAWS
YGHR
SDIL
PVGY
CWYS
WYNE
WMST
KKIT
GIES
KPKL
MHTG
HCVY
QKCL
NCKR
PVVY
MGVR
LRRW
MVGR
TSNF
HKDY
SKTM
SSLE
VHWR
WPPS
LKGR
TTSF
SHAD
GPAE
GPSM
CRSY
MMMG
DAHG
QCTP
RAHI
ALPP
SWDV
PMQW
ARMG
EKVS
HKDG
NLQR
DRNK
EFMS
TRSE
AYDD
SVYG
PPGK
MISF
SCPG
HRKM
MWIR
RELA
HRSV
HYEC
SHFC
TTNP
NMPC
SLPR
HFNT
SFCH
TKEQ
LMQP
WHES
YEPF
EVTD
DRTK
IHWC
IFPT
EGIS
HTDS
LFSE
AGTM
QHEW
YRMI
FLNC
EHRC
LNVM
AYCG
AGTH
AAQG
IAKT
QPLS
GYNP
YPVQ
SAVF
INRM
WGDS
FVGR
ITTV
EKKN
DYTE
SPQE
CSFV
GIKG
CSGR
LHKY
KRKM
CCCG
QNDH
FTNF
MHMI
RVDQ
LNVF
IDNG
RMFR
HSNY
VCTG
CKKM
RLCI
PGHI
DVSY
EKIC
EYKY
LRYA
DDWN
KKMD
WWGS
PFSN
EMIG
VNAR
QIVG
QVYA
GVAF
MVMG
PFET
PLDM
LDYD
PIVY
CPAG
KCCG
NYVV
SATK
LRTF
PHYR
TMKA
LALG
ITVT
LSKW
QMLG
NASK
PEDR
PQVK
FMHR
QRAD
NNSA
YRAK
RWPN
DRQG
FLEF

one-hybrid fitness for binding parS DNA, 0.254:
RWWA

one-hybrid fitness for binding parS DNA, 0.935:
RTDG

one-hybrid fitness for binding parS DNA, 0.574:
RMQA

one-hybrid fitness for binding parS DNA, 0.305:
RSIY

— a collection of fitness landscapes (doi:10.1016/j.celrep.2020.107928)
